Measurements from PubChem BioAssay AID488969 (Vanderbilt High Throughput Screening Facility, 2010).
Whole data set: some 110,000 compounds, median “z-score” near -0.1, cut for the highest 2% near 2. The list shows a part of the results. Calls of active or inactive are those of the source.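 How the source made its calls: active means z-score in the third read window above 3 or below -3; inactive means the rest.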 Residues, ends and D or L forms follow the SMILES beside them. *: point of attachment. Bz = O=C(c1ccccc1)*

The compounds below were run against Metabotropic glutamate receptor 8 (Rattus norvegicus) (UniProt P70579) (assay: rat mGluR8 modulators via GIRK flux, primary screen, cell-based, thallium flux, HTS (AID 488969)). Conditions: HEK293 rat mGluR8, GIRK (G protein-gated inwardly rectifying potassium channel) thallium flux, FluoZin2; at 10 µM; stronger effect = higher value; submaximal glutamate (EC20) added with thallium.
Chain of UniProt P70579 (P70579 whole entry, looked up): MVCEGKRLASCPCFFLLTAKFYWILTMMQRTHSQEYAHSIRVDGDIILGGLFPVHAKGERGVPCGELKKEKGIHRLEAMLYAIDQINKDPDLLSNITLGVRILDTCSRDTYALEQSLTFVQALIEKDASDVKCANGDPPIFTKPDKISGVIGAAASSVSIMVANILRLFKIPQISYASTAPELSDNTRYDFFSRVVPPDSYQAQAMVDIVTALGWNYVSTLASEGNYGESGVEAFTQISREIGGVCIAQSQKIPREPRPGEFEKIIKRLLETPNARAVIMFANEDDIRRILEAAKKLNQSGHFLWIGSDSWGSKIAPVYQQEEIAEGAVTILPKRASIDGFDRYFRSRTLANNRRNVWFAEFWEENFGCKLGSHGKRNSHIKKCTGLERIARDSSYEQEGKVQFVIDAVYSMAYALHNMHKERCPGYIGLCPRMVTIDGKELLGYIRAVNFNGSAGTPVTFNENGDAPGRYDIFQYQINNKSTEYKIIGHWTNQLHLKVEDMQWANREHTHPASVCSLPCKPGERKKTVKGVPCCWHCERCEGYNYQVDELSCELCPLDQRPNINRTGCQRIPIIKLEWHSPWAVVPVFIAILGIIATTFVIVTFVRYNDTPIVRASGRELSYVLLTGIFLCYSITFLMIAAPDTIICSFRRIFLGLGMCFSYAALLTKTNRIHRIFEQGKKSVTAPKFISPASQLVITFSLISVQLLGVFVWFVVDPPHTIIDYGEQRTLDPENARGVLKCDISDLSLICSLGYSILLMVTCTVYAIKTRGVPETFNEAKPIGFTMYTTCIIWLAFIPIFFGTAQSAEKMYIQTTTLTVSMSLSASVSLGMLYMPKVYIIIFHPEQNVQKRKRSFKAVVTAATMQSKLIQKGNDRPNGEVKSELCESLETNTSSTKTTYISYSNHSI
With C/C(=N/NC(=O)c1ccoc1C)C12CC3CC(CC(C3)C1)C2 the z-score was 0.37. CCOc1ccc(NC(=S)Nc2cc(-c3ccccc3)[nH]n2)cc1 gave a z-score of 0.117. For COc1ccc(Br)cc1C(=O)NCc1cccnc1, the z-score was 0.245. For CC1=NN(Cc2ccccc2)C(=O)/C1=C\c1ccc(N(C)C)cc1, the z-score was 0.44. Work on Cc1cccc(-c2noc(CCCC(=O)Nc3ccc(C(N)=O)cc3)n2)c1 yielded a z-score of 0.243. Cc1cc(C)c(S(=O)(=O)c2ccccc2)c(OC(=O)c2c(Cl)cccc2Cl)n1 gave a z-score of -0.286. NS(=O)(=O)c1cccc(NC(=S)NC(=O)C23CC4CC(CC(C4)C2)C3)c1 was tested, and the z-score was 0.254. COC(=O)c1ccccc1NC(=O)CSc1nnc(C(CO)NC(=O)c2ccccc2)n1C (configuration not stated) was tested, and the z-score was -0.249. Cc1ccc(-n2c(=O)[nH]cc(C(=O)Nc3ccc4c(c3)OCCO4)c2=O)cc1C was tested, and the z-score was 0.293. Cc1ccc(NC(=S)NN2CCOCC2)c(C)c1 gave a z-score of 0.294. Work on CCCCC(OC(=O)c1cc2occc2n1C)C(=O)NCC1CCCO1 (configuration not stated) yielded a z-score of -0.192. With O=C(CN1C(=O)CSC1=O)Nc1ccc(C(=O)O)cc1 the z-score was 0.78. In the case of CCn1c(N2CCN(CC(=O)Nc3cccc(C)c3C)CC2)nc2ccccc21, the z-score is reported as 0.107. Compound OC(C#CCN1CCOCC1)c1cccs1 (configuration not stated) has a z-score of -0.742. In the case of O=C(NCc1cccnc1)C1CC(=O)N(CCc2ccccc2)C1 (configuration not stated), the z-score is reported as 0.347. O=C(CN1CCOCC1)Nc1nc2ccc(Br)cc2s1 was tested, and the z-score was 0.222. CCOC(=O)c1nc(Nc2ccc(C(=O)O)cc2)c2ccccc2n1 was tested, and the z-score was -0.389. Work on O=C(Nc1ccc(Cl)cc1)Nc1ccccc1C(=O)NCc1ccco1 yielded a z-score of -0.534. CN1CCN(S(=O)(=O)c2ccc(NC(=O)c3ccc(Br)o3)cc2)CC1 showed a z-score of -0.512. With COc1ccc(-c2nc(CSCC(=O)NC3CCCc4ccccc43)c(C)o2)cc1 (configuration not stated) the z-score was 0.527. Cc1nn(C)c(C)c1/C=C/C(=O)c1ccccc1 showed a z-score of -0.358. O=C1CC(/C=C/c2ccccc2)(C(=O)NC2CCCC2)N1c1ccc(S(=O)(=O)N2CCCC2)cc1 (configuration not stated) showed a z-score of -0.0708. OC12CCCCC1C(c1ccc3c(c1)OCO3)N(Cc1ccc(F)cc1)CC2 (configuration not stated) was tested, and the z-score was 1.16. With Cc1ccc(C(=O)NCCn2cc(SCC(=O)N3CCOCC3)c3ccccc32)cc1 the z-score was -0.305. CCOC(=O)CCCNC(=O)COC(=O)c1cc2ccccc2cc1O showed a z-score of 0.173. In the case of COc1ccc(S(=O)(=O)N2CCc3ccccc32)cc1C(=O)OCc1c(C)noc1C, the z-score is reported as -1.53. Cc1ccccc1NC(=O)C(=O)NCc1ccccn1 was tested, and the z-score was 0.0487. CCOc1ccccc1NC(=O)C(CC(C)C)NC(=O)C1CCC(C)CC1 (configuration not stated) was tested, and the z-score was 0.171. Work on O=C(CSc1cccc(C(F)(F)F)c1)Nc1cc(S(=O)(=O)N2CCCC2)ccc1Cl yielded a z-score of -0.00743. Compound Cc1cc(C)n(CC(O)CN2C(=O)NC(C)(C)C2=O)n1 (configuration not stated) has a z-score of 0.578. For Cc1cc(C)c(S(=O)(=O)N2CCN(c3ccc([N+](=O)[O-])c(NCC4CCCO4)c3)CC2)c(C)c1 (configuration not stated), the z-score was -0.159. N/C(=N\OC(=O)c1ccco1)c1ccc(Br)cc1 gave a z-score of -0.0693. Cc1ccccc1Cn1cnc2c(NS(C)(=O)=O)c(C)c(C)cc21 showed a z-score of -0.138. Compound Cc1ccc(S(=O)(=O)N2CCN(C)CC2)c(C)c1 has a z-score of 0.311. Cc1ccc(CN(CC(=O)N/N=C/c2ccccc2[N+](=O)[O-])S(=O)(=O)c2ccc(C)cc2)cc1 was tested, and the z-score was -0.0313. With CC(=O)c1cnc(Nc2ccccc2)s1 the z-score was 0.548. For CC(C)N(CCn1c(=S)[nH]c2ccccc2c1=O)C(C)C, the z-score was 2.64. Work on CCc1ccc(C2C3=C(CC(C)(C)CC3=O)OC3=C2C(=O)CC(C)(C)C3)cc1 yielded a z-score of -0.116. In the case of COc1ccc(C(=O)CC(c2ccccc2)S(=O)(=O)c2ccc(C)cc2)cc1 (configuration not stated), the z-score is reported as 1.55. COc1ccc(OC)c(S(=O)(=O)N(C)CC(=O)Nc2cc(Cl)ccc2OC)c1 gave a z-score of -0.511. O=C(O)CCCNC(=O)C(c1ccccc1)c1ccccc1 showed a z-score of -0.286. Compound O=C(CCN1CCN(C(=O)c2ccco2)CC1)Nc1ccc(F)cc1 has a z-score of -0.0338. Compound COc1ccccc1OCCCCN1CCN(C(c2ccccc2)c2ccccc2)CC1 has a z-score of 0.0325. CC(C(=O)Nc1ccccc1-c1ccccc1)N1CCCCC1 (configuration not stated) showed a z-score of 0.165. For COc1ccc2c(c1)C(C)=CC(C)(C)N2C(=O)CSc1nnc(-c2ccc(C)cc2)o1, the z-score was 0.648. Work on COCc1[nH]nc2c1C(c1ccc(OC)cc1)C(C#N)=C(N)O2 (configuration not stated) yielded a z-score of 0.0374. Compound O=C(Nc1cccs1)Nc1ccc(F)cc1F has a z-score of 0.103. In the case of CCOC(=O)/C(C#N)=C\c1ccc(N2CCN(C)CC2)cc1, the z-score is reported as 0.374. C/C(Cn1nc([N+](=O)[O-])cc1C)=N\NC(=O)c1ccc(O)cc1O gave a z-score of -0.109. In the case of Cc1ccc(-c2nc3c(cnn3-c3ccccc3)c(=O)o2)cc1, the z-score is reported as -0.0297. Work on Cc1cccc(CC(=O)Nc2c3c(nn2-c2cccc(Cl)c2)CS(=O)C3)c1 (configuration not stated) yielded a z-score of -0.26. Cc1ccc(Cl)cc1N1CCN(C(=O)Cc2cn(C)c3ccccc23)CC1 gave a z-score of -0.0945. For Cc1ccc(S(=O)(=O)N2CCC(C(=O)Nc3ccccc3N3CCCCC3)CC2)cc1, the z-score was -1.05. C/C(=N\OC(=O)c1cccc(C(F)(F)F)c1)c1sc(-c2ccccc2)nc1C showed a z-score of 0.542. Compound CCc1c(C)sc(NC(=O)c2cccs2)c1C(=O)OC(C)C has a z-score of -0.458. COc1ccc(/C=C2\NC(=O)C(C=NCc3ccccc3)=C2O)cc1 was tested, and the z-score was 0.0339. CCN1CC2([N+](=O)[O-])C=CC(=O)C([N+](=O)[O-])(C1)C2CC(=O)c1ccccc1 (configuration not stated) showed a z-score of -0.135. Compound COc1ccc(/C=N/NC(=O)c2cccc([N+](=O)[O-])c2)cc1OS(=O)(=O)c1ccccc1 has a z-score of -0.00309. For O=C(NCCN1CCOCC1)C1CCN(S(=O)(=O)N2CCCCC2)CC1, the z-score was 0.767. For COc1ccc(NC(=O)CN2CCN(CC(=O)Nc3ccccc3Cl)CC2)c(OC)c1, the z-score was -0.207. Work on CC(=O)C1C(c2ccccc2)c2c(n[nH]c2C)CC1(C)O (configuration not stated) yielded a z-score of 0.241. For COc1ccc(-c2csc3ncnc(Oc4cccc5ccc(C)nc45)c23)cc1, the z-score was -0.205. Compound COc1cccc(C(=O)NC(C)C(c2cccs2)N2CCOCC2)c1 (configuration not stated) has a z-score of 0.197. With COC(=O)c1ccc(CSc2nnc(NC(=O)C3CCCO3)s2)cc1 (configuration not stated) the z-score was 0.158. Work on CC1CCCCC1NC(=O)c1ccc(S(=O)(=O)NCc2ccco2)cc1 (configuration not stated) yielded a z-score of -0.117. Compound Cc1cc(C)c(C(=O)COC(=O)[C@H](C)Nc2ccc(C(F)(F)F)cc2[N+](=O)[O-])c(C)c1 has a z-score of -0.075. Cn1nc(-c2ccc(Cl)cc2)c2cc(C(=O)N3CCN(c4ccccc4)CC3)sc21 gave a z-score of -0.0847. Work on Fc1ccccc1OCCCCCN1CCCC1 yielded a z-score of -0.126. COC(=O)C(NC(=O)C(NC(=O)c1ccccc1)C(C)C)C(C)C (stereo not drawn) (Bz-Val-Val-OMe; configuration not given here) showed a z-score of -0.217. Cc1ccc(Nc2ccc(C(=O)N3CCCC3)cn2)c(C)c1 was tested, and the z-score was -0.562. Compound Cc1cccc(C)c1NC(=O)CSc1nnnn1C has a z-score of -0.094. In the case of O=C(O)C(Cc1ccccc1)N1Cc2ccccc2C1=O (configuration not stated), the z-score is reported as 0.146. Work on COc1ccc2c(c1)[nH]c1c(=O)n(CCCn3ccnc3)cnc12 yielded a z-score of -0.275. O=C1N=C(N2CCCCC2)S/C1=C\c1cn[nH]c1-c1ccccc1 showed a z-score of -0.161. Compound Cc1cccc(/C=N/c2sc3c(c2C#N)CCN(Cc2ccccc2)C3)c1O has a z-score of -0.267. CCC(C)c1ccc(OCC(=O)Nc2ccc3[nH]c(=O)[nH]c3c2)cc1 (configuration not stated) showed a z-score of -0.156. Cc1[nH]nc(-c2ccc(OCc3cnn(-c4ccccc4)c3)c(C)c2O)c1Oc1ccccc1 showed a z-score of -0.416. C=CCNc1nc(-c2c(C)nc3sccn23)cs1 showed a z-score of -0.0962. O=C(NC(C(=O)c1ccccc1)N1CCOCC1)c1cccs1 (configuration not stated) gave a z-score of -0.745. With CCOC(=O)C1CCCn2c1nc1sc3c(c1c2=O)CCCC3 (configuration not stated) the z-score was 0.526. For COc1ccc2oc3ccc(OC)cc3c(=O)c2c1, the z-score was -0.184. With CCN(CC)CC(=O)NCC1(c2ccccc2)CCOCC1 the z-score was -0.0875. For COc1cccc(CNS(=O)(=O)c2cc(Br)cc3c2N(C(C)=O)C(C)C3)c1 (configuration not stated), the z-score was 0.241. CCOc1ccc(-n2c(=O)[nH]cc(C(=O)N3CCc4ccccc43)c2=O)cc1 gave a z-score of -0.82. Cc1cc(C)cc(Nc2ncc3c(n2)CC(c2ccco2)CC3=O)c1 (configuration not stated) was tested, and the z-score was -0.476. N#C/C(=C\c1ccc(-c2ccc(C(=O)O)cc2)o1)C(=O)NCC1CCCO1 (configuration not stated) was tested, and the z-score was -0.15. With CCCn1c(N2CCN(CC(=O)c3c(C)n(C)c4ccc(OC)cc34)CC2)nc2c1c(=O)[nH]c(=O)n2C the z-score was -0.339. Compound Cn1cnc2cc(NC(=O)c3ccco3)ccc21 has a z-score of -0.102. Cc1ccc(CNC(=O)CCNS(=O)(=O)c2cccc3nonc23)cc1 showed a z-score of -0.135. Cc1ccc(N(C(C)C(=O)N2CCC(C)CC2)S(C)(=O)=O)cc1C (configuration not stated) gave a z-score of -0.252. In the case of CCOC1(OCC)C(c2ccc(N)cc2)C(C#N)(C#N)C1(OCC)OCC (configuration not stated), the z-score is reported as -0.359. Cc1ccc(-n2ncc3c2ncn2c(C)nnc32)cc1C was tested, and the z-score was -0.203. With O=C(CCCCn1c(=O)c2ccccc2n(Cc2ccc(F)cc2Cl)c1=O)NCc1ccco1 the z-score was -1.01. O=c1c2ccccc2nc(SCc2cccc(F)c2)n1C1CCCC1 showed a z-score of -0.271. CC1CCN(c2oc(-c3ccccc3F)nc2C#N)CC1 was tested, and the z-score was 2.57. Compound O=C1CCCC(O)=C1C1NCCc2ccccc21 (configuration not stated) has a z-score of 0.281. O=C(NCc1ccco1)c1cc(-c2ccc3c(c2)OCO3)on1 showed a z-score of -0.862. Compound COc1ccc(-c2nn3c(-c4cccc(C)c4)nnc3s2)cc1OC has a z-score of -1.06. CCOC(=O)c1cc(-c2ccc(/C=N\n3cnnc3)o2)ccc1Cl showed a z-score of -0.855. O=C(NC1CCCC1)C(c1ccco1)N(Cc1ccccc1)C(=O)c1csnn1 (configuration not stated) was tested, and the z-score was 0.267. O=S(=O)(NC1CCN(Cc2ccccc2)CC1)c1cccc(S(=O)(=O)N2CCOCC2)c1 was tested, and the z-score was -0.00491. CN(C(=O)c1cccnc1)c1nnc(-c2cnccn2)s1 was tested, and the z-score was active: -5.48. Work on C/C(=N\Nc1nc2c(s1)CCCC2)c1ccccc1 yielded a z-score of -0.113. Work on CCSc1nc2ccccc2n1CC(N)=O yielded a z-score of -0.307. With O=C(NC1CC2CCCC(C1)N2C(=O)Nc1ccc(Cl)c(C(F)(F)F)c1)C1CC1 (configuration not stated) the z-score was -0.823. Cc1ccccc1-n1nnnc1SCC(=O)Nc1ccc(S(=O)(=O)N2CCCC2)cc1 was tested, and the z-score was 0.135. O=C(NCC(F)(F)F)Nc1ccccn1 was tested, and the z-score was 1.45.
